At least one compound was matched to its structure with a doubt left.
Assays:
α1-GABAA receptor = assay: Ligand-binding assay, radiolabeled flumazenil competition, cerebellum membranes; conditions: rat cerebellum membranes, radiolabeled flumazenil 1 nM
Procedure: (§1) a) Ligand-binding Assays. Determination of the Affinity of Test Compounds for α1- and α2-GABAA Receptor
(§2) Male Sprague-Dawley rats weighing 200-250 g at the time of experiment were used. After decapitation of the animal, the cerebellum (tissue that mostly contains α1-GABAA receptor) and spinal cord (tissue that mostly contains α2-GABAA receptor) were removed. The membranes were prepared according to the method by J. Lameh et al. (Prog. Neuro-Psychopharmacol. Biol. Psychiatry, 24, 979-991, 2000) and H. Noguchi et al. (Eur J Pharm, 434, 21-28, 2002) with slight modifications. Once the tissues weighed, they were suspended in 50 mM Tris.HCl (pH 7.4), 1:40 (v/v), or sucrose 0.32 M in the case of spinal cord, homogenized and then centrifuged at 20000 g for 10 minutes at 7° C. The resulting pellet was resuspended under the same conditions and centrifuged again. The pellet was finally resuspended on a minimum volume and kept at −80° C. overnight. A slight modification was used in the case of spinal cord at the first centrifugation step. Centrifugation speed was at 1000 g and the supernatant was collected instead of discarded as in cerebellum. Then, supernatant was centrifuged at 20000 g and resuspended twice more under the same conditions described above for cerebellum. On the next day, the process was repeated until the final pellet was resuspended at a ratio of 1:10 (v/v) in the case of cerebellum and at a ratio of 1:5 (v/v) in the case of spinal cord.
(§3) Affinity was determined by competitive tests using radiolabeled flumazenil as ligand. The tests were performed according to the methods described by S. Arbilla et al. (Eur. J. Pharmacol., 130, 257-263, 1986); and Y. Wu et al. (Eur. J. Pharmacol., 278, 125-132, 1995) using 96-well microtiter plates. The membranes containing the study receptors, flumazenil (radiolabeling at a final concentration of 1 nM) and ascending concentrations of test compounds (in a total volume of 230 μl in 50 mM [pH 7.4] Tris.HCl buffer) were incubated. Simultaneously, the membranes were only incubated with the radiolabeled flumazenil (total binding, 100%) and in the presence of an elevated concentration of unradiolabeled flumazenil (non-specific binding, % estimation of radiolabeled ligand). The reactions started on adding the radiolabeled ligand followed by incubation for 60 minutes at 4° C. At the end of the incubation period, 200 μl of reaction were transferred to a multiscreen plate (Millipore) and filtered using a vacuum manifold and then washed three times with cold test buffer. The multiscreen plates were equipped with a GF/B filter that retained the membranes containing the receptors and the radiolabeled ligand which had been bound to the receptors. After washing, the plates were left till dry. Once dried, scintillation liquid was added and left under stirring overnight. The next day the plates were counted using a Perkin-Elmer Microbeta scintillation counter.
(§4) For analysis of the results the percentage of specific binding for every concentration of test compound was calculated as follows: specific binding−(X−N/T−N)×100 where, X: amount of bound ligand for every concentration of compound. T: total binding, maximum amount bound to the radiolabeled ligand. N: non-specific binding, amount of radiolabeled ligand bound in a non-specific way irrespective of the receptor used.
(§5) Every concentrations of compound were tested in triplicate and their mean values were used to determine the experimental values of % specific binding versus the concentration of compound. Affinity data are expressed as % inhibition at 10^−5M and 10^−7M concentrations.

α2-GABAA receptor = assay: Ligand-binding assay, radiolabeled flumazenil competition, spinal cord membranes; conditions: rat spinal cord membranes, radiolabeled flumazenil 1 nM
Procedure: as §1, §2, §3, §4, §5

| SMILES | % inhib 10^−5 M, affinity for the α1-subunit of the GABAA receptor (α1-GABAA receptor) | % inhib 10^−7 M, affinity for the α1-subunit of the GABAA receptor (α1-GABAA receptor) | % inhib 10^−5 M, affinity for the α2-subunit of the GABAA receptor (α2-GABAA receptor) | % inhib 10^−7 M, affinity for the α2-subunit of the GABAA receptor (α2-GABAA receptor) |
| --- | --- | --- | --- | --- |
| CCN(CC)C(=O)Cc1c(-c2ccc(C)cc2)nc2ccc(Cl)nn12 [Example 1, 2-(6-Chloro-2-p-tolyl-imidazo[1,2-b]pyridazin-3-yl)-N,N-diethyl-acetamide] | 100.1% | 98.2% | 94.3% | 49.0% |
| CCCN(CCC)C(=O)Cc1c(-c2ccc(C)cc2)nc2ccc(Cl)nn12 [Example 2, 2-(6-Chloro-2-p-tolyl-imidazo[1,2-b]pyridazin-3-yl)-N,N-dipropyl-acetamide] | 100.3% | 99.6% | 98.6% | 66.1% |
| CCCCN(CCCC)C(=O)Cc1c(-c2ccc(C)cc2)nc2ccc(Cl)nn12 [Example 3, N,N-Dibutyl-2-(6-chloro-2-p-tolyl-imidazo[1,2-b]pyridazin-3-yl)-acetamide] | 100.2% | 99.4% | 91.3% | 60.8% |
| Cc1ccc(-c2nc3ccc(Cl)nn3c2CC(=O)N2CCCCC2)cc1 [Example 4, 2-(6-Chloro-2-p-tolyl-imidazo[1,2-b]pyridazin-3-yl)-1-piperidin-1-yl-ethanone] | 99.9% | 98.3% | 97.6% | 53.2% |
| Cc1ccc(-c2nc3ccc(Cl)nn3c2CC(=O)N2CCOCC2)cc1 [Example 5, 2-(6-Chloro-2-p-tolyl-imidazo[1,2-b]pyridazin-3-yl)-1-morpholin-4-yl-ethanone] | 100.3% | 97.5% | 97.7% | 45.0% |
| Cc1ccc(-c2nc3ccc(Cl)nn3c2CC(=O)N2CCCC2)cc1 [Example 6, 2-(6-Chloro-2-p-tolyl-imidazo[1,2-b]pyridazin-3-yl)-1-pyrrolidin-1-yl-ethanone] | 100.0% | 97.4% | 97.5% | 49.4% |
| CCOc1ccc2nc(-c3ccc(Br)cc3)c(CC(=O)N3CCOCC3)n2n1 [Example 9, 2-[2-(4-Bromo-phenyl)-6-ethoxy-imidazo[1,2-b]pyridazin-3-yl]-1-morpholin-4-yl-ethanone] | 96.8% | 11.4% | 61.7% | 5.9% |
| CCOc1ccc2nc(-c3ccc(Br)cc3)c(CC(=O)N3CCCCC3)n2n1 [Example 10, 2-[2-(4-Bromo-phenyl)-6-ethoxy-imidazo[1,2-b]pyridazin-3-yl]-1-piperidin-1-yl-ethanone] | 99.1% | 39.3% | 72.0% | 19.1% |
| CCCCN(CCCC)C(=O)Cc1c(-c2ccc(Br)cc2)nc2ccc(OCC)nn12 [Example 11, 2-[2-(4-Bromo-phenyl)-6-ethoxy-imidazo[1,2-b]pyridazin-3-yl]-N,N-dibutyl-acetamide] | 96.0% | 22.0% | 47.0% | 1.7% |
| CCCN(CCC)C(=O)Cc1c(-c2ccc(Br)cc2)nc2ccc(OCC)nn12 [Example 12, 2-[2-(4-Bromo-phenyl)-6-ethoxy-imidazo[1,2-b]pyridazin-3-yl]-N,N-dipropyl-acetamide] | 96.9% | 34.6% | 71.9% | 2.2% |
| CCOc1ccc2nc(-c3ccc(Br)cc3)c(CC(=O)N(CC)CC)n2n1 [Example 13, 2-[2-(4-Bromo-phenyl)-6-ethoxy-imidazo[1,2-b]pyridazin-3-yl]-N,N-diethyl-acetamide] | 99.7% | 58.3% | 76.7% | 15.5% |
| Cc1ccc2nc(-c3ccc(Br)cc3)c(CC(=O)N3CCOCC3)n2n1 [Example 14, 2-[2-(4-Bromo-phenyl)-6-methyl-imidazo[1,2-b]pyridazin-3-yl]-1-morpholin-4-yl-ethanone] | 99.5% | 80.6% | 76.9% | 10.8% |
| CCCN(CCC)C(=O)Cc1c(-c2ccc(Br)cc2)nc2ccc(C)nn12 [Example 17, 2-[2-(4-Bromo-phenyl)-6-methyl-imidazo[1,2-b]pyridazin-3-yl]-N,N-dipropyl-acetamide] | 99.5% | 97.1% | 83.0% | 36.8% |
| CCOc1ccc2nc(-c3ccc(Cl)cc3)c(CC(=O)N(CC)CC)n2n1 [Example 20, 2-[2-(4-Chloro-phenyl)-6-ethoxy-imidazo[1,2-b]pyridazin-3-yl]-N,N-diethyl-acetamide] | 99.6% | 73.7% | 82.0% | 20.8% |
| CCCN(CCC)C(=O)Cc1c(-c2ccc(Cl)cc2)nc2ccc(OCC)nn12 [Example 23, 2-[2-(4-Chloro-phenyl)-6-ethoxy-imidazo[1,2-b]pyridazin-3-yl]-N,N-dipropyl-acetamide] | 99.1% | 61.7% | 80.0% | 0.0% |
| CCCCN(CCCC)C(=O)Cc1c(-c2ccc(Cl)cc2)nc2ccc(OCC)nn12 [Example 24, N,N-Dibutyl-2-[2-(4-chloro-phenyl)-6-ethoxy-imidazo[1,2-b]pyridazin-3-yl]-acetamide] | 98.4% | 57.7% | 77.4% | 13.6% |
| Cc1ccc(-c2nc3ccc(C)nn3c2CC(=O)N2CC(C)CC(C)C2)cc1 (centres unmarked) [Example 81, 1-(3,5-Dimethyl-piperidin-1-yl)-2-(6-methyl-2-p-tolyl-imidazo[1,2-b]pyridazin-3-yl)-ethanone] | 100.1% | 98.5% |  |  |
| CCCN(CC1CC1)C(=O)Cc1c(-c2ccc(C)cc2)nc2ccc(C)nn12 [Example 82, N-Cyclopropylmethyl-2-(6-methyl-2-p-tolyl-imidazo[1,2-b]pyridazin-3-yl)-N-propyl-acetamide] | 100.1% | 99.2% |  |  |
